Experimental data as given in the supplement of paper PMC11876631.
Numbering of substitutions follows the chain as printed. Numbers in names are those of the source. ± gives the standard deviation of the averaged measurements. Laboratory Escherichia coli strains with one amino-acid change in an essential protein, pooled on minimal glucose agar with carbenicillin or gentamicin at twice the control MIC (plus kanamycin and chloramphenicol for the plasmids), 48 h. Fold change of barcode share against drug-free plates; higher = less susceptible. Active = above 20 in both replicates (the paper's putatively resistant). '<' = one read or none on drug, '>' = one read or none on a drug-free plate. Shares are relative, so most strains fall below 1 when a few take over. Listed are strains with at least 15 reads on both drug-free plates, and hits; most hits rest on fewer reference reads. Replicate rank correlation about 0.5. Edits are read from barcodes.

Biological target: Escherichia coli (laboratory strain)
Assay: barcode share on antibiotic plates over drug-free plates; higher = less susceptible
Method: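 A pool of E. coli strains, each edited to carry one amino-acid change in an essential protein, was grown for 48 h on minimal glucose agar with or without antibiotic; strain barcodes were sequenced; mean of two replicates.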

[1] = antibiotic: carbenicillin, 2× MIC (3.1 µg/mL)
[2] = antibiotic: gentamicin, 2× MIC (MIC 0.45 µg/mL)

B1: murI V90Q (protein)
chain: MATKLQDGNTPCLAATPSEPRPTVLVFDSGVGGLSVYDEIRHLLPDLHYIYAFDNVAFPYGEKSEAFIVERVVAIVTAVQERYPLALAVQACNTASTVSLPALREKFDFPVVGVVPAIKPAARLTANGIVGLLATRGTVKRSYTHELIARFANECQIEMLGSAEMVELAEAKLHGEDVSLDALKRILRPWLRMKEPPDTVVLGCTHFPLLQEELLQVLPEGTRLVDSGAAIARRTAWLLEHEAPDAKSADANIAFCMAMTPGAEQLLPVLQRYGFETLEKLAVLG
fold change of barcode share [1]: 0.279 ± 0.021 | fold change of barcode share [2]: 0.00458 ± 0.00043

B2: murI I40W (protein)
chain: B1 chain with I40W, Q90V
fold change of barcode share [1]: 0.405 ± 0.35 | fold change of barcode share [2]: 0.02 ± 0.0088

B3: murI V76Q (protein)
chain: B1 chain with V76Q, Q90V
fold change of barcode share [1]: 0.453 ± 0.22 | fold change of barcode share [2]: < 0.0108

B4: murI I40A (protein)
chain: B1 chain with I40A, Q90V
fold change of barcode share [1]: 1.38 ± 0.78 | fold change of barcode share [2]: 0.00801 ± 0.00022

B5: murI I75W (protein)
chain: B1 chain with I75W, Q90V
fold change of barcode share [1]: 0.348 ± 0.015 | fold change of barcode share [2]: < 0.00756

B6: murI I75A (protein)
chain: B1 chain with I75A, Q90V
fold change of barcode share [1]: 0.305 ± 0.032 | fold change of barcode share [2]: < 0.0103

B7: murI V90P (protein)
chain: B1 chain with Q90P
fold change of barcode share [1]: 0.277 ± 0.11 | fold change of barcode share [2]: 0.00518 ± 0.0058

B8: murI I75D (protein)
chain: B1 chain with I75D, Q90V
fold change of barcode share [1]: 0.464 ± 0.051 | fold change of barcode share [2]: < 0.00743

B9: murI I75P (protein)
chain: B1 chain with I75P, Q90V
fold change of barcode share [1]: 0.611 ± 0.63 | fold change of barcode share [2]: < 0.00701

B10: murI I40Q (protein)
chain: B1 chain with I40Q, Q90V
fold change of barcode share [1]: 0.426 ± 0.06 | fold change of barcode share [2]: 0.00529 ± 0.0029

B11: murI I75Q (protein)
chain: B1 chain with I75Q, Q90V
fold change of barcode share [1]: 0.472 ± 0.011 | fold change of barcode share [2]: 0.0157 ± 0.014

B12: asnS V74P (protein)
chain: MSVVPVADVLQGRVAVDSEVTVRGWVRTRRDSKAGISFLAVYDGSCFDPVQAVINNSLPNYNEDVLRLTTGCSPIVTGKVVASPGQGQQFEIQASKVEVAGWVEDPDTYPMAAKRHSIEYLREVAHLRPRTNLIGAVARVRHTLAQALHRFFNEQGFFWVSTPLITASDTEGAGEMFRVSTLDLENLPRNDQGKVDFDKDFFGKESFLTVSGQLNGETYACALSKIYTFGPTFRAENSNTSRHLAEFWMLEPEVAFANLNDIAGLAEAMLKYVFKAVLEERADDMKFFAERVDKDAVSRLERFIEADFAQVDYTDAVTILENCGRKFENPVYWGVDLSSEHERYLAEEHFKAPVVVKNYPKDIKAFYMRLNEDGKTVAAMDVLAPGIGEIIGGSQREERLDVLDERMLEMGLNKEDYWWYRDLRRYGTVPHSGFGLGFERLIAYVTGVQNVRDVIPFPRTPRNASF
fold change of barcode share [1]: 0.376 ± 0.089

B13: asnS I75W (protein)
chain: B12 chain with P74V, I75W
fold change of barcode share [1]: 0.342 ± 0.019 | fold change of barcode share [2]: 0.0549 ± 0.068

B14: asnS I75A (protein)
chain: B12 chain with P74V, I75A
fold change of barcode share [1]: 0.27 ± 0.1 | fold change of barcode share [2]: 0.00883 ± 0.0037
